According to the supplement of paper PMC10126150:
Values marked as one replicate rest on one cluster of the flow cell; about a third of the high ones do not repeat.

Tested on: ATP
Experiment: switch fluorescence ratio, 500 uM ATP over buffer (Cy3 cluster intensity, sum of 5 cycles each) (fold (ratio)); higher = stronger signal-on switching upon ATP binding; sequences stand for … in TCGTCGGCAGCGTCAGATGTGTATAAGAGACAGTTTTTTTTTTTTTTTTTTTTTTTTT…TC
Conditions: aptamer strand: ATP DNA aptamer (quencher-CACCTGGGGGAGTATTGCGGAGGAAGG + anchor), 100 nM annealed; ATP concentration: 500 uM; one replicate
Method in brief: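 Per cluster, summed Cy3 intensity from the target cycles was divided by that from the buffer cycles to give the fluorescence ratio, then averaged per switch-domain sequence. Clusters outside 100-1000 RFU were excluded. The Cy3-labelled switching-strand clusters, on a modified Illumina MiSeq flow-cell, were annealed to 100 nM quencher-labelled ATP aptamer and imaged in selection buffer, then after 15 min with 500 uM ATP at 22 °C, for five cycles with NaOH stripping and re-annealing between them.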
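Note: ATP exposure 15 min at 22 °C before imaging.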

Q: Which switch fluorescence ratio does the source give for ATTGCTTAGT here?
A: 0.964

Q: ATTGCTTCGA was tested. Which switch fluorescence ratio did it give?
A: 1.01

Q: ATTGCTTGTG was tested. Which switch fluorescence ratio did it give?
A: 0.957

Q: ATTGGAATCC was tested. Which switch fluorescence ratio did it give?
A: 1.06

Q: With ATTGGAGCA as the sequence, how does the switch fluorescence ratio read?
A: 1.05

Q: ATTGGATCCA was tested. Which switch fluorescence ratio did it give?
A: 1

Q: For ATTGGCACAC, which switch fluorescence ratio is on record?
A: 1.04

Q: For ATTGGCCGTA, which switch fluorescence ratio is on record?
A: 0.987

Q: For ATTGGCTCTG, which switch fluorescence ratio is on record?
A: 0.986

Q: ATTGGGATAT was tested. Which switch fluorescence ratio did it give?
A: 1.04

Q: ATTGGGCTAG was tested. Which switch fluorescence ratio did it give?
A: 1

Q: With ATTGGGGATA as the sequence, how does the switch fluorescence ratio read?
A: 0.974

Q: ATTGTAAGAG was tested. Which switch fluorescence ratio did it give?
A: 1.03

Q: ATTGTGAAGT was tested. Which switch fluorescence ratio did it give?
A: 1

Q: Which switch fluorescence ratio does the source give for ATTGTGGACT here?
A: 1.02

Q: Which switch fluorescence ratio does the source give for ATTGTTATGT here?
A: 1.03

Q: For ATTGTTCGAA, which switch fluorescence ratio is on record?
A: 1.04

Q: How did the switch fluorescence ratio turn out when ATTGTTTGG was run?
A: 0.947

Q: ATTTAACCGC was tested. Which switch fluorescence ratio did it give?
A: 1.3

Q: How did the switch fluorescence ratio turn out when ATTTAACCGT was run?
A: 0.958

Q: With ATTTAATAGT as the sequence, how does the switch fluorescence ratio read?
A: 0.995

Q: For ATTTACACGT, which switch fluorescence ratio is on record?
A: 1.03

Q: With ATTTACCGGC as the sequence, how does the switch fluorescence ratio read?
A: 0.979

Q: How did the switch fluorescence ratio turn out when ATTTACTCTT was run?
A: 1.02

Q: With ATTTAGTCAA as the sequence, how does the switch fluorescence ratio read?
A: 1.04

Q: For ATTTCACGGG, which switch fluorescence ratio is on record?
A: 1.06

Q: Which switch fluorescence ratio does the source give for ATTTCCAAT here?
A: 0.967

Q: With ATTTCCCGCC as the sequence, how does the switch fluorescence ratio read?
A: 1.3

Q: How did the switch fluorescence ratio turn out when ATTTCCTGTA was run?
A: 1.01

Q: ATTTCGACGC was tested. Which switch fluorescence ratio did it give?
A: 2.17

Q: How did the switch fluorescence ratio turn out when ATTTCGGATT was run?
A: 1.01

Q: Which switch fluorescence ratio does the source give for ATTTCTGAAG here?
A: 0.985

Q: Which switch fluorescence ratio does the source give for ATTTCTTAAC here?
A: 0.982

Q: Which switch fluorescence ratio does the source give for ATTTCTTTGA here?
A: 0.973

Q: How did the switch fluorescence ratio turn out when ATTTGATCTC was run?
A: 0.998

Q: With ATTTGCACTC as the sequence, how does the switch fluorescence ratio read?
A: 1.05

Q: ATTTGCATA was tested. Which switch fluorescence ratio did it give?
A: 1

Q: For ATTTGCGCCC, which switch fluorescence ratio is on record?
A: 1.05

Q: With ATTTGCTTGA as the sequence, how does the switch fluorescence ratio read?
A: 1.02

Q: With ATTTGGCTAG as the sequence, how does the switch fluorescence ratio read?
A: 0.992

Q: For ATTTGGGA, which switch fluorescence ratio is on record?
A: 1.02

Q: For ATTTGGGAA, which switch fluorescence ratio is on record?
A: 0.981

Q: For ATTTGGTCTA, which switch fluorescence ratio is on record?
A: 0.997

Q: With ATTTGTAACT as the sequence, how does the switch fluorescence ratio read?
A: 0.999

Q: How did the switch fluorescence ratio turn out when ATTTTACATA was run?
A: 1.03

Q: How did the switch fluorescence ratio turn out when ATTTTACGGA was run?
A: 1.02

Q: ATTTTACTTA was tested. Which switch fluorescence ratio did it give?
A: 1.01

Q: How did the switch fluorescence ratio turn out when ATTTTAGCAG was run?
A: 1.01

Q: For ATTTTAGCGG, which switch fluorescence ratio is on record?
A: 0.999

Q: For ATTTTAGGCG, which switch fluorescence ratio is on record?
A: 0.932

Q: For ATTTTCATG, which switch fluorescence ratio is on record?
A: 1.03

Q: With ATTTTCCTCA as the sequence, how does the switch fluorescence ratio read?
A: 1.09

Q: For ATTTTCTTAC, which switch fluorescence ratio is on record?
A: 1.09

Q: ATTTTGCATC was tested. Which switch fluorescence ratio did it give?
A: 0.971

Q: With ATTTTGTCTG as the sequence, how does the switch fluorescence ratio read?
A: 1.02

Q: Which switch fluorescence ratio does the source give for ATTTTGTTCC here?
A: 1.03

Q: For ATTTTTAATT, which switch fluorescence ratio is on record?
A: 0.995

Q: How did the switch fluorescence ratio turn out when ATTTTTTGCA was run?
A: 0.994

Q: For CAAAAAATGG, which switch fluorescence ratio is on record?
A: 0.992

Q: How did the switch fluorescence ratio turn out when CAAAAAGGTA was run?
A: 0.992

Q: How did the switch fluorescence ratio turn out when CAAAAATACT was run?
A: 1.26

Q: For CAAAACAGCA, which switch fluorescence ratio is on record?
A: 0.965

Q: How did the switch fluorescence ratio turn out when CAAAAGCACC was run?
A: 0.988

Q: Which switch fluorescence ratio does the source give for CAAAAGTCAT here?
A: 0.982

Q: CAAAAGTTCG was tested. Which switch fluorescence ratio did it give?
A: 1.04

Q: CAAAATGCGT was tested. Which switch fluorescence ratio did it give?
A: 1.02

Q: CAAAATGGGC was tested. Which switch fluorescence ratio did it give?
A: 0.994

Q: For CAAAATTGAC, which switch fluorescence ratio is on record?
A: 0.991

Q: Which switch fluorescence ratio does the source give for CAAAATTTTT here?
A: 0.972

Q: For CAAACCAGGG, which switch fluorescence ratio is on record?
A: 1.18

Q: How did the switch fluorescence ratio turn out when CAAACGCTTG was run?
A: 1.03

Q: CAAACTAGCC was tested. Which switch fluorescence ratio did it give?
A: 1.06

Q: For CAAACTTTAG, which switch fluorescence ratio is on record?
A: 0.97

Q: For CAAAGAAATG, which switch fluorescence ratio is on record?
A: 1

Q: How did the switch fluorescence ratio turn out when CAAAGAAGCA was run?
A: 1.01

Q: For CAAAGATGAG, which switch fluorescence ratio is on record?
A: 0.984

Q: For CAAAGATTTA, which switch fluorescence ratio is on record?
A: 0.989

Q: With CAAAGCCATA as the sequence, how does the switch fluorescence ratio read?
A: 1.05

Q: For CAAAGGAAG, which switch fluorescence ratio is on record?
A: 1.06

Q: For CAAAGGACGT, which switch fluorescence ratio is on record?
A: 0.95

Q: CAAAGGCCCA was tested. Which switch fluorescence ratio did it give?
A: 0.974

Q: Which switch fluorescence ratio does the source give for CAAAGGTTGT here?
A: 1.01

Q: Which switch fluorescence ratio does the source give for CAAAGGTTT here?
A: 0.934

Q: How did the switch fluorescence ratio turn out when CAAAGTACT was run?
A: 1.12

Q: With CAAAGTCTAC as the sequence, how does the switch fluorescence ratio read?
A: 1.07

Q: Which switch fluorescence ratio does the source give for CAAAGTCTTA here?
A: 0.985

Q: CAAAGTGC was tested. Which switch fluorescence ratio did it give?
A: 1.06

Q: For CAAAGTGTGC, which switch fluorescence ratio is on record?
A: 1.15

Q: How did the switch fluorescence ratio turn out when CAAATAGAGC was run?
A: 1

Q: Which switch fluorescence ratio does the source give for CAAATAGAGT here?
A: 0.965

Q: Which switch fluorescence ratio does the source give for CAAATAGCCG here?
A: 1.14

Q: For CAAATAGCGA, which switch fluorescence ratio is on record?
A: 1.08

Q: With CAAATAGTTG as the sequence, how does the switch fluorescence ratio read?
A: 0.979

Q: CAAATATGTA was tested. Which switch fluorescence ratio did it give?
A: 1.01

Q: Which switch fluorescence ratio does the source give for CAAATCAACA here?
A: 1.01

Q: For CAAATCGCAT, which switch fluorescence ratio is on record?
A: 1.17

Q: Which switch fluorescence ratio does the source give for CAAATGAGG here?
A: 0.935

Q: With CAAATGCAAG as the sequence, how does the switch fluorescence ratio read?
A: 1.01

Q: With CAAATGGTAT as the sequence, how does the switch fluorescence ratio read?
A: 0.989

Q: With CAAATGTC as the sequence, how does the switch fluorescence ratio read?
A: 0.905
